Measured values taken from PubChem BioAssay AID651820 (National Center for Advancing Translational Sciences (NCATS), 2012).
Where “and” joins values, the source holds several entries; their conditions need not be identical. Equal entries are not always repeated. The campaign covered roughly 340,000 compounds. About 12,000 (3.5%) were called active. The shares of active, inactive and inconclusive entries below differ from those in the screen. The call rests on the fitted dose curve; in most records, active means well fitted inhibition curve with a large enough effect; inconclusive means small, poorly fitted or top-dose-only effect, or another doubt; inactive means no such curve, though single readings can be large or run the other way. Where the call is inconclusive, the potency comes from a doubtful curve fit.

test: qHTS Assay for Inhibitors of Hepatitis C Virus (HCV); details: Huh7.5.1 HCVcc-Cre (HCVcc is cell-culture hepatitis C virus) infection, luciferase reporter, 44 h; activity change, negative = inhibition: at 41.8 µM (top of the series) unless noted
In short: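 Cells (1,000/well) were plated 4 h before compound, then infected with HCVcc-Cre virus (~0.5 moi). After 44 h further culture, infection was read as luciferase luminescence following a 15 min substrate incubation at room temperature.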
On the % scale 0 is the no-effect control and ±100 the full control effect; potency means the concentration at half of the fitted maximal effect; tags describe the fitted curve by direction and shape.

Structure (SMILES)	activity change, negative = inhibition	Potency
COc1ccccc1Cn1c(C)nc2ccccc21	inactive: 8.45%	
COc1ccccc1CNc1nc(C)c(C(C)=O)s1		inconclusive: 7.94 µM [inhibitor, partial curve, poor fit]
CCOc1ccccc1C1NC(=O)NC(C)=C1C(=O)OC1CCCC1C (stereo unspecified)	inactive: 2.7%	
CC(C)c1cc(NCc2ccccn2)n2c(nc3ccccc32)c1C#N		inconclusive: 3.55 µM [inhibitor, full curve]
CNC(=O)c1ccsc1NC(=O)c1ccc(S(=O)(=O)N2CCCc3ccccc32)cc1		active: 10 µM
COc1ccc(C)cc1CN(C)c1ccc(S(=O)(=O)N2CCN(C)CC2)cn1		inconclusive: 31.6 µM [inhibitor, single point]
NC(=O)N/N=C/c1ccc(-c2ccc([N+](=O)[O-])cc2)o1	inactive: 9.66%	
COc1cc2sc3ccc(C#Cc4ccc(N)cc4)cc3c(=O)c2cc1OC		inconclusive: 2 µM [inhibitor, partial curve]
CCOC(=O)C(O)(c1ccc(NC(=S)NC(=O)c2ccc(Cl)cc2Cl)cc1)C(F)(F)F (stereo unspecified)		inconclusive: 31.6 µM [inhibitor, single point]
COc1cc(C2C3=C(CCCC3=O)Nc3[nH]n(-c4ccccc4)c(=O)c32)ccc1OC(C)=O (stereo unspecified)	inactive: -28.4%	
COC(=O)Nc1sc2c(c1C(=O)NCc1ccco1)CCCC2		inconclusive: 0.501 µM [inhibitor, partial curve, poor fit]
COc1cccc(-c2nc(CS(=O)(=O)CC(=O)N3CCN(c4ccccn4)CC3)c(C)o2)c1		inconclusive: 14.1 µM [inhibitor, single point] and inconclusive: 6.31 µM [inhibitor, partial curve]
COc1ccccc1-n1cc(-c2ccccc2)[nH]c1=S	inactive: -14.5%	
NCCSC1CC(=O)N(c2ccc(Cl)c(Cl)c2)C1=O (stereo unspecified)	inactive: 15.7%	
COC(=O)c1ccc(Sc2ccccc2NS(=O)(=O)c2ccc(NC(C)=O)cc2)nc1		inconclusive: 31.6 µM [inhibitor, single point]
COc1cc2cnc(-c3ccccc3)c(-c3cc(OC)c(OC)c(OC)c3)c2cc1OC		active: 12.6 µM
NS(=O)(=O)c1ccc(NC(=S)N2CCN(Cc3ccc4c(c3)OCO4)CC2)cc1		inconclusive: 10 µM [inhibitor, partial curve]
O=S(=O)(NCc1ccccc1Cl)c1ccc(-n2cccn2)cc1	inactive: -6.55%	
CC1CCC(NS(=O)(=O)c2ccc3c(c2)CC(=O)N3)CC1 (stereo unspecified)		inconclusive: 31.6 µM [inhibitor, single point]
O=C(N/N=C/c1ccc(Cl)cc1)c1cc2c(s1)-c1ccccc1CC2		inconclusive: 7.08 µM [inhibitor, partial curve, poor fit]
COC(=O)c1cc(Cl)c(NC(=O)/C=C/c2ccc(OC)cc2)cc1OC		inconclusive: 0.447 µM [inhibitor, full curve, poor fit]
CC(Oc1ccccc1F)c1nnc(SCC(=O)N(c2ccccc2)C2CCS(=O)(=O)C2)o1 (stereo unspecified)		inconclusive: 31.6 µM [inhibitor, single point]
Cc1nc2ccc(C(=O)N/N=C/c3cc([N+](=O)[O-])ccc3O)cc2[nH]1	inactive: 2.99%	
CC(=O)NNc1ncnc2c1cnn2-c1ccc(C)c(Cl)c1		inconclusive: 11.2 µM [inhibitor, single point]

Structure (SMILES)	activity change, negative = inhibition	Potency
O=C(Nc1cccc(/C=C/c2ccccn2)c1)c1ccc(-n2cncn2)c([N+](=O)[O-])c1		inconclusive: 0.501 µM [inhibitor, full curve, poor fit]
Cc1cc(SCC(=O)OCC(=O)NCC2CCCO2)c(C)cc1Br (stereo unspecified)	inactive: 15.4%	
CCCOc1ccc(CNC(=O)C2CCN(c3nnc(N4CCCC4=O)s3)CC2)cc1	inactive: 17.5%	
COc1ccc(-c2cc(C(F)(F)F)nc(N3CCOCC3)n2)cc1		inconclusive: 1.78 µM [inhibitor, full curve]
COc1ccc(N2CCN(C(=O)c3cc(=O)c4cc(C)cc(C)c4o3)CC2)cc1		inconclusive: 14.1 µM [inhibitor, single point]
Cc1ccc(-c2noc(=O)n2CC(=O)c2ccc(Cl)cc2)cc1		inconclusive: 31.6 µM [inhibitor, single point]
Cc1c(NC(=O)C(C)OC(=O)/C=C/c2ccccc2)c(=O)n(-c2ccccc2)n1C (stereo unspecified)	inactive: 2.71%	
O=C(NNC(=O)c1cc(-c2ccccc2)nc2ccccc12)Nc1cccc(Cl)c1		inconclusive: 31.6 µM [inhibitor, single point]
Cc1ccc2ccc(C(Nc3cccc(C(F)(F)F)c3)c3cccnc3)c(O)c2n1 (stereo unspecified)		inconclusive: 7.94 µM [inhibitor, partial curve]
COc1cc(-c2nc3ccccn3c2NCc2ccccc2)ccc1SC1CCCCC1		inconclusive: 14.1 µM [inhibitor, partial curve]
Cc1cc(C)cc(C(=O)OCC(=O)Nc2cccc(S(=O)(=O)NC3=NCCCCC3)c2)c1		inconclusive: 11.2 µM [inhibitor, single point]
CC(=O)c1ccc(NC(=S)N2CCN(CCN3C(=O)c4cccc5cccc(c45)C3=O)CC2)cc1	inactive: 14%	
CCN(CC(=O)Nc1ccc(C)c(S(=O)(=O)N(C)C)c1)Cc1ccccc1		inconclusive: 31.6 µM [inhibitor, single point]
COc1ccc(NC(=O)c2oc3ccc(S(=O)(=O)N4CCC5(CC4)OCCO5)cc3c2C)cc1		active: 10 µM and active: 12.6 µM
Cc1ccc(Cn2cccc(NC(=O)NCc3ccccc3)c2=O)cc1		inconclusive: 10 µM [inhibitor, partial curve, poor fit]
c1ccc(C2[C@H]3CN(Cc4cccnc4)[C@H](c4ccccc4)C34CC2(c2cccnc2)C4)cc1 (stereo partly specified)	inactive: 47.7% [at 8.37 µM]	
O=C(NCCc1ccccc1)c1cnc2ccccc2n1	inactive: -7.98%	
O=C1CN(C(=O)COC(=O)C2=COCCO2)c2ccccc2N1	inactive: 15.3%	
O=C(Nc1ccc(Nc2ccccc2)cc1)c1cc([N+](=O)[O-])ccc1Cl		active: 11.2 µM
O=C(O)/C=C\C(=O)Nc1ccccc1C#Cc1ccc(Br)cc1		active: 4.47 µM
CCS(=O)(=O)Nc1ccc(C2=NN(C(=O)c3ccco3)C(c3ccco3)C2)cc1 (stereo unspecified)		inconclusive: 8.91 µM [inhibitor, partial curve]
NNc1nc2c(Cl)c(Cl)ccc2s1	inactive: 6.22%	
CO/N=C/CC(=O)c1ccc([N+](=O)[O-])c(CS(=O)(=O)c2ccc(Cl)cc2)c1		inconclusive: 31.6 µM [inhibitor, single point]
CCCCCN(C(=O)CCC(=O)OCc1cccc(Cl)c1)c1c(N)n(CCCC)c(=O)[nH]c1=O		inconclusive: 22.4 µM [inhibitor, single point]

Structure (SMILES)	activity change, negative = inhibition	Potency
O=C(NCc1cc(Br)cc(Br)c1OC(=O)c1ccccc1[N+](=O)[O-])c1ccccc1		inconclusive: 10 µM [inhibitor, partial curve]
COC(=O)Cc1ccc(NC(=S)N2CCN(c3cccc(O)c3)CC2)cc1		inconclusive: 14.1 µM [inhibitor, single point]
Cc1ccc(/C=N/NC(=O)Cn2nccc2C)o1	inactive: 10.2%	
O=C(Nc1nccs1)c1ccc(-c2ccc(Cl)cc2)o1		inconclusive: 14.1 µM [inhibitor, single point]
CC(=O)/C(=N\Nc1ccc(Cl)cc1Cl)Sc1nnc(-c2ccccc2)n1-c1ccccc1		inconclusive: 31.6 µM [inhibitor, single point]
Cc1nc(N2N=C(c3ccc(Cl)cc3)CC2c2ccco2)sc1C(=O)N(C)C (stereo unspecified)		inconclusive: 17.8 µM [inhibitor, single point]
CCN(CC)S(=O)(=O)c1ccc(NN)nc1	inactive: 2.82%	
COc1ccc(-n2cc(-c3ccccc3)c3c(N4CCN(CCO)CC4)ncnc32)cc1		inconclusive: 31.6 µM [inhibitor, single point]
CCCn1c(SCC(=O)NC(=O)NCc2ccccc2)n[nH]c1=O	inactive: 12.5%	
CCN(CC)c1ccc(C2C3CCCCC3(O)CCN2CC(=O)N2CCCCC2)cc1 (stereo unspecified)	inactive: 11.3%	
O=C(NC(=S)Nc1cccc(O)c1)c1ccco1		inconclusive: 31.6 µM [inhibitor, single point]
CCC(C)C(NC(=O)c1ccccc1NC(=O)c1ccco1)C(=O)NNC(=O)c1ccncc1 (stereo unspecified)		inconclusive: 4.47 µM [inhibitor, full curve, poor fit]
COCCCNC(=O)CCCOc1ccccc1	inactive: 4.06%	
CCCCOP(=O)(OCCCC)C1(C)CC(=O)CC(C)(C)C1 (stereo unspecified)	inactive: 3.99%	
COc1ccc(-c2cn3cccnc3n2)cc1NC(=O)C1CC1		inconclusive: 5.62 µM [inhibitor, single point]
COc1cc(C(=O)OCC(=O)Nc2ccc(SC(F)F)cc2)cc(OC)c1OC		inconclusive: 11.2 µM [inhibitor, single point]
COc1ccc2[nH]c3c(c2c1)CCn1c-3nc2ccccc2c1=O	inactive: -5.25%	
CC1=C(C(=O)OCc2ccccc2)C(c2ccc3ccccc3c2)NC(=O)N1CCCCCC(=O)O (stereo unspecified)	inactive: 0.581% [at 8.37 µM]	
Cc1cc(C(=O)CN2C(=O)NC3(CCCCC3)C2=O)c(C)n1C	inactive: 11%	
COc1cc(NC(=O)c2noc(C)c2[N+](=O)[O-])c(OC)cc1Cl		inconclusive: 31.6 µM [inhibitor, single point]
COc1ccc(C(=O)NCS(=O)(=O)c2ccc(C)cc2)cc1	inactive: 0.605%	
COc1ccc(NC(=O)NCCN2CCN(c3cc(OC)ccc3OC)CC2)cc1	inactive: -24.6%	
C=CC(=O)Nc1cccc(N(C)c2ccnc(Nc3ccc(N4CCN(C)CC4)cc3)n2)c1		inconclusive: 1.26 µM [inhibitor, partial curve]
